Experimental data taken from patent US20250353917A1 (SYSTIMMUNE, published 2025).
Read-outs that look alike come from different tables or passages of the source.

Experiments:
EGFR on BxPC-3 cells = EGFR on BxPC-3 cells (UniProt P00533); assay: cell-based or functional assay
His-tagged human EGFR [1] = biological target: T1, His-tagged human EGFR (human, UniProt P00533 fragment, limits assumed); assay: BLI (Octet), antibody on AHC sensors, His-tagged human EGFR in solution, 1:1 global fit
T1 construct: also called huEGFR

His-tagged human EGFR [2] = biological target: T1, His-tagged human EGFR; assay: as above; remark: listed apart in the source

B1: SI-77P1 (other)
heavy: EIVMTQSPSTLSASVGDRVIITCQASESISSWLAWYQQKPGKAPKLLIYEASKLASGVPSRFSGSGSGAEFTLTISSLQPDDFATYYCQGYFYFISRTYVNSFGQGTKLTVLGGGGSGGGGSGGGGSGGGGSEVQLVESGGGLVQPGGSLRLSCAASGFTISTNAMSWVRQAPGKGLEWVGVITGRDITYYASWAKGRFTISRDTSKNTVYLQMNSLRAEDTAVYYCARDGGSSAITSNNIWGQGTLVTVSSGGGGSGGGGSQVQLQQSGPGLVKPSETLSITCTVSGFSLTNYGVHWIRQAPGKGLEWLGVIWSGGNTDYNTPFTSRFTITKDNSKNQVYFKLRSVRADDTAIYYCARALTYYDYEFAYWGQGTLVTVSSASTKGPSVFPLAPSSKSTSGGTAALGCLVKDYFPEPVTVSWNSGALTSGVHTFPAVLQSSGLYSLSSVVTVPSSSLGTQTYICNVNHKPSNTKVDKRV[human IgG1 Fc with changes left out here]GGGGSGGGGSEVQLLESGGGLVQPGGSLRLSCAASGFSFSSGYDMCWVRQAPGKGLEWIACIAAGSAGITYDANWAKGRFTISRDNSKNTLYLQMNSLRAEDTAVYYCARSAFSFDYAMDLWGQGTLVTVSSGGGGSGGGGSGGGGSGGGGSDIQMTQSPSTLSASVGDRVTITCQASQSISSHLNWYQQKPGKAPKLLIYKASTLASGVPSRFSGSGSGTEFTLTISSLQPDDFATYYCQQGYSWGNVDNVFGGGTKVEIKGGGGSGGGGSGRSLVESGGGLVQPGGSLRLSCTASGFTISSYHMQWVRQAPGKGLEYIGTISSGGNVYYASSARGRFTISRPSSKNTVDLQMNSLRAEDTAVYYCARDSGYSDPMWGQGTLVTVSSGGGGSGGGGSGGGGSGGGGSDVVMTQSPSSVSASVGDRVTITCQASQNIRTYLSWYQQKPGKAPKLLIYAAANLASGVPSRFSGSGSGTDFTLTISDLEPGDAATYYCQSTYLGTDYVGGAFGGGTKVEIK
light: ENVLTQSPASLSASPGERVTITCSASSSVSYMHWYQQKPGQAPKLWIYDTSKLASGVPSRFSGSGSGNDHTLTISSMEPEDFATYYCFQGSVYPFTFGQGTKVTVLGGGGSGGGGSGGGGSGGGGSQVTLKESGPGLVQPGQTLSLTCAFSGFSLSTSGMGVGWIRQPPGKGLEWLAHIWWDDDKRYNPALKSRLTISKDTSKNQVYLQMNSLDAEDTAVYYCARMELWSYYFDYWGQGTLVTVSSGGGGSGGGGSEIVLTQSPSTLSVSPGERATFSCRASQSIGTNIHWYQQKPGKPPRLLIKYASESISGIPDRFSGSGSGTEFTLTISSVQSEDFAVYYCQQNNNWPTTFGPGTKLTVLRTVAAPSVFIFPPSDEQLKSGTASVVCLLNNFYPREAKVQWKVDNALQSGNSQESVTEQDSKDSTYSLSSTLTLSKADYEKHKVYACEVTHQGLSSPVTKSFNRGEC
In the case of B1, the “TDCC EC50 (pM)” value (EGFR on BxPC-3 cells) is reported as 0.0826 pM.

B2: SI-55P3 (other)
heavy: EIVMTQSPSTLSASVGDRVIITCRASQSIGTNIHWYQQKPGKAPKLLIYYASESISGIPSRFSGSGSGAEFTLTISSLQPDDFATYYCQQNNNWPTTFGQGTKLTVLGGGGSGGGGSGGGGSGGGGSEVQLVESGGGLVQPGGSLRLSCSVSGFSLTNYGVHWVRQAPGKGLEWVGVIWSGGNTDYNTPFTSRFTISRDTSKNTVYLQMNSLRAEDTAVYYCARALTYYDYEFAYWGQGTLVTVSSGGGGSGGGGSQVQLQESGGRLVQPGEPLSLTCKTSGIDLSSNAIGWVRQAPGKGLEWIGVIFGSGNTYYASWAKGRFTISRSTSTVYLKMNSLRSEDTAIYYCARGGYSSDIWGQGTLVTVSSASTKGPSVFPLAPSSKSTSGGTAALGCLVKDYFPEPVTVSWNSGALTSGVHTFPAVLQSSGLYSLSSVVTVPSSSLGTQTYICNVNHKPSNTKVDKRV[human IgG1 Fc with changes left out here]GGGGSGGGGSEVQLLESGGGLVQPGGSLRLSCAASGFSFSSGYDMCWVRQAPGKGLEWIACIAAGSAGITYDANWAKGRFTISRDNSKNTLYLQMNSLRAEDTAVYYCARSAFSFDYAMDLWGQGTLVTVSSGGGGSGGGGSGGGGSGGGGSDIQMTQSPSTLSASVGDRVTITCQASQSISSHLNWYQQKPGKAPKLLIYKASTLASGVPSRFSGSGSGTEFTLTISSLQPDDFATYYCQQGYSWGNVDNVFGGGTKVEIKGGGGSGGGGSGRSLVESGGGLVQPGGSLRLSCTASGFTISSYHMQWVRQAPGKGLEYIGTISSGGNVYYASSARGRFTISRPSSKNTVDLQMNSLRAEDTAVYYCARDSGYSDPMWGQGTLVTVSSGGGGSGGGGSGGGGSGGGGSDVVMTQSPSSVSASVGDRVTITCQASQNIRTYLSWYQQKPGKAPKLLIYAAANLASGVPSRFSGSGSGTDFTLTISDLEPGDAATYYCQSTYLGTDYVGGAFGGGTKVEIK
light: ENVLTQSPASLSASPGERVTITCSASSSVSYMHWYQQKPGQAPKLWIYDTSKLASGVPSRFSGSGSGNDHTLTISSMEPEDFATYYCFQGSVYPFTFGQGTKVTVLGGGGSGGGGSGGGGSGGGGSQVTLKESGPGLVQPGQTLRLTCAFSGFSLSTSGMGVGWIRQPPGKGLEWLAHIWWDDDKRYNPALKSRLTISKDTSKNQVYLQMNSLDAEDTAVYYCARMELWSYYFDYWGQGTLVTVSSGGGGSGGGGSDPVLTQSPSSLSASVGDRVTISCQSSQSVAKNNNLAWFQQKPGQAPKLLIYSASTLAAGVPSRFSGSGSGTDFTLTISSVQPEDFATYYCSARDSGNIQSFGGGTKVEIKRTVAAPSVFIFPPSDEQLKSGTASVVCLLNNFYPREAKVQWKVDNALQSGNSQESVTEQDSKDSTYSLSSTLTLSKADYEKHKVYACEVTHQGLSSPVTKSFNRGEC
notes: Penta-specific GNC antibody: αEGFR H1 scFv (D1), αCD3 (D2 Fab), αPD-L1 (D3), α4-1BB (D4), αCD19 (D6); also called penta-GNC antibody, H1 scFv
Binder B2 has a Kd (His-tagged human EGFR [1]) of 18.1 nM, a Kd (His-tagged human EGFR [2]) of 18.1 nM and a koff (His-tagged human EGFR [2]) of 0.0109 s⁻¹. For the same binder, the kon (His-tagged human EGFR [2]) was 601000 M⁻¹ s⁻¹.

B3: SI-79P2 (other)
heavy: EIVLTQSPSTLSVSPGERATFSCRASQSIGTNIHWYQQKPGKPPRLLIKYASESISGIPDRFSGSGSGTEFTLTISSVQSEDFAVYYCQQNNNWPTTFGPGTKLELKGGGGSGGGGSGGGGSGGGGSQVQLQQSGPGLVKPSETLSITCTVSGFSLTNYGVHWIRQAPGKGLEWLGVIWSGGNTDYNTPFTSRFTITKDNSKNQVYFKLRSVRADDTAIYYCARALTYYDYEFAYWGQGTLVTVSSGGGGSGGGGSQVQLQESGGRLVQPGEPLSLTCKTSGIDLSSNAIGWVRQAPGKGLEWIGVIFGSGNTYYASWAKGRFTISRSTSTVYLKMNSLRSEDTAIYYCARGGYSSDIWGQGTLVTVSSASTKGPSVFPLAPSSKSTSGGTAALGCLVKDYFPEPVTVSWNSGALTSGVHTFPAVLQSSGLYSLSSVVTVPSSSLGTQTYICNVNHKPSNTKVDKRV[human IgG1 Fc with changes left out here]GGGGSGGGGSEVQLLESGGGLVQPGGSLRLSCAASGFSFSSGYDMCWVRQAPGKGLEWIACIAAGSAGITYDANWAKGRFTISRDNSKNTLYLQMNSLRAEDTAVYYCARSAFSFDYAMDLWGQGTLVTVSSGGGGSGGGGSGGGGSGGGGSDIQMTQSPSTLSASVGDRVTITCQASQSISSHLNWYQQKPGKAPKLLIYKASTLASGVPSRFSGSGSGTEFTLTISSLQPDDFATYYCQQGYSWGNVDNVFGGGTKVEIKGGGGSGGGGSGRSLVESGGGLVQPGGSLRLSCTASGFTISSYHMQWVRQAPGKGLEYIGTISSGGNVYYASSARGRFTISRPSSKNTVDLQMNSLRAEDTAVYYCARDSGYSDPMWGQGTLVTVSSGGGGSGGGGSGGGGSGGGGSDVVMTQSPSSVSASVGDRVTITCQASQNIRTYLSWYQQKPGKAPKLLIYAAANLASGVPSRFSGSGSGTDFTLTISDLEPGDAATYYCQSTYLGTDYVGGAFGGGTKVEIK
light: B2 light
notes: Penta-specific GNC antibody: αEGFR H4 scFv (D1), αCD3 (D2 Fab), αPD-L1 (D3), α4-1BB (D4), αCD19 (D6); also called penta-GNC antibody, H4 scFv
In the case of B3, the Kd (His-tagged human EGFR [1]) is reported as 4.3 nM, the Kd (His-tagged human EGFR [2]) is reported as 4.3 nM and the koff (His-tagged human EGFR [2]) is reported as 0.00141 s⁻¹. The kon (His-tagged human EGFR [2]) was 328000 M⁻¹ s⁻¹.

B4: SI-55P9 (other)
heavy: EIVLTQSPSTLSVSPGERATFSCRASQSIGTNIHWYQQKPGKPPRLLIKYASESISGIPDRFSGSGSGTEFTLTISSVQSEDFAVYYCQQNNNWPTTFGPGTKLTVLGGGGSGGGGSGGGGSGGGGSQVQLQQSGPGLVKPSETLSITCTVSGFSLTNYGVHWIRQAPGKGLEWLGVIWSGGNTDYNTPFTSRFTITKDNSKNQVYFKLRSVRADDTAIYYCARALTYYDYEFAYWGQGTLVTVSSGGGGSGGGGSEVQLVESGGGLVQPGGSLRLSCAASGFTISTNAMSWVRQAPGKGLEWIGVITGRDITYYASWAKGRFTISRDNSKNTLYLQMNSLRAEDTAVYYCARDGGSSAITSNNIWGQGTLVTVSSASTKGPSVFPLAPSSKSTSGGTAALGCLVKDYFPEPVTVSWNSGALTSGVHTFPAVLQSSGLYSLSSVVTVPSSSLGTQTYICNVNHKPSNTKVDKRV[human IgG1 Fc with changes left out here]GGGGSGGGGSEVQLLESGGGLVQPGGSLRLSCAASGFSFSSGYDMCWVRQAPGKGLEWIACIAAGSAGITYDANWAKGRFTISRDNSKNTLYLQMNSLRAEDTAVYYCARSAFSFDYAMDLWGQGTLVTVSSGGGGSGGGGSGGGGSGGGGSDIQMTQSPSTLSASVGDRVTITCQASQSISSHLNWYQQKPGKAPKLLIYKASTLASGVPSRFSGSGSGTEFTLTISSLQPDDFATYYCQQGYSWGNVDNVFGGGTKVEIKGGGGSGGGGSGRSLVESGGGLVQPGGSLRLSCTASGFTISSYHMQWVRQAPGKGLEYIGTISSGGNVYYASSARGRFTISRPSSKNTVDLQMNSLRAEDTAVYYCARDSGYSDPMWGQGTLVTVSSGGGGSGGGGSGGGGSGGGGSDVVMTQSPSSVSASVGDRVTITCQASQNIRTYLSWYQQKPGKAPKLLIYAAANLASGVPSRFSGSGSGTDFTLTISDLEPGDAATYYCQSTYLGTDYVGGAFGGGTKVEIK
light: ENVLTQSPASLSASPGERVTITCSASSSVSYMHWYQQKPGQAPKLWIYDTSKLASGVPSRFSGSGSGNDHTLTISSMEPEDFATYYCFQGSVYPFTFGQGTKVTVLGGGGSGGGGSGGGGSGGGGSQVTLKESGPGLVQPGQTLRLTCAFSGFSLSTSGMGVGWIRQPPGKGLEWLAHIWWDDDKRYNPALKSRLTISKDTSKNQVYLQMNSLDAEDTAVYYCARMELWSYYFDYWGQGTLVTVSSGGGGSGGGGSDVVMTQSPSTLSASVGDRVTINCQASESISSWLAWYQQKPGKAPKLLIYEASKLASGVPSRFSGSGSGTEFTLTISSLQPDDFATYYCQGYFYFISRTYVNSFGGGTKVEIKRTVAAPSVFIFPPSDEQLKSGTASVVCLLNNFYPREAKVQWKVDNALQSGNSQESVTEQDSKDSTYSLSSTLTLSKADYEKHKVYACEVTHQGLSSPVTKSFNRGEC
notes: Penta-specific GNC antibody: αEGFR H7 scFv (D1), αCD3 (D2 Fab), αPD-L1 (D3), α4-1BB (D4), αCD19 (D6); also called penta-GNC antibody, H7 scFv
For B4, the Kd (His-tagged human EGFR [1]) was 6.88 nM, the “TDCC EC50 (pM)” value (EGFR on BxPC-3 cells) was 0.573 pM and the Kd (His-tagged human EGFR [2]) was 6.88 nM. For the same binder, the koff (His-tagged human EGFR [2]) was 0.00204 s⁻¹ and the kon (His-tagged human EGFR [2]) was 297000 M⁻¹ s⁻¹.
